Experimental data taken from PubChem BioAssay (NCI).
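Test compounds were applied to cells in 96-well plates for 48 hours at 5 doses. TGI denotes the concentration required for complete inhibition of growth.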 A number of entries come with more than one value. Only these are listed. There may be further records. The tests behind the records often covered other concentration ranges, not given here; some values may only mark the edge of a range.

Key:
Assay in all cases: growth of human tumour cells (NCI), 48 h
NCI/ADR-RES ovarian = system: NCI/ADR-RES ovarian
MOLT-4 leukemia = system: MOLT-4 leukemia
CCRF-CEM leukemia = system: CCRF-CEM leukemia
SNB-19 CNS = system: SNB-19 CNS
IGROV1 ovarian = system: IGROV1 ovarian
ACHN renal = system: ACHN renal
CAKI-1 renal = system: CAKI-1 renal
SW-620 colon = system: SW-620 colon
HOP-62 NSCLC = system: HOP-62 NSCLC
COLO 205 colon = system: COLO 205 colon
LOX IMVI melanoma = system: LOX IMVI melanoma
NCI-H23 lung = system: NCI-H23 lung
HT29 colon = system: HT29 colon
KM12 colon = system: KM12 colon
OVCAR-8 ovarian = system: OVCAR-8 ovarian
RPMI-8226 leukemia = system: RPMI-8226 leukemia
HL-60(TB) leukemia = system: HL-60(TB) leukemia

Row | Compound | TGI (NCI/ADR-RES ovarian) | TGI (MOLT-4 leukemia) | TGI (CCRF-CEM leukemia) | TGI (SNB-19 CNS) | TGI (IGROV1 ovarian) | TGI (ACHN renal) | TGI (CAKI-1 renal) | TGI (SW-620 colon) | TGI (HOP-62 NSCLC) | TGI (COLO 205 colon) | TGI (LOX IMVI melanoma) | TGI (NCI-H23 lung) | TGI (HT29 colon) | TGI (KM12 colon) | TGI (OVCAR-8 ovarian) | TGI (RPMI-8226 leukemia) | TGI (HL-60(TB) leukemia)
1 | CC(=O)NC1C(OCc2ccccc2)OC(CO)C(O)C1OCC(=O)NC(C)C(=O)NC(CCC(=O)NCCCCCNc1c2ccccc2nc2cccc([N+](=O)[O-])c12)C(N)=O (stereo not drawn) | 146 nM and > 100 µM | 5.35 nM and 1.74 µM | 285 nM and > 100 µM | 14.1 nM and 11.5 µM | 6.56 nM and 84.9 nM |  |  |  |  |  |  |  |  |  |  |  | 
2 | CN(C)CCCNc1c2ccccc2nc2cccc([N+](=O)[O-])c12 |  |  |  |  |  | < 1 nM and 26.1 nM | 3.73 nM and 356 nM | 4.15 nM and 101 nM | 6.83 nM and 128 nM | 1.37 nM and 18.3 nM | 4.86 nM and 53.4 nM | 1.56 nM and 16.9 nM | 10.3 nM and 138 nM | 3.67 nM and 95.3 nM | 4.84 nM and 140 nM | 5.1 nM and 68.1 nM | 
3 | Cc1cccc2nc3cccc(C(=O)NCCC[N+](C)(CCCNC(=O)c4cccc5nc6cccc(C)c6nc45)Cc4c([N+](=O)[O-])ncn4C)c3nc12 |  | 1.12 µM and > 1.1 mM |  |  |  |  |  |  |  |  |  |  |  |  |  |  | 65.7 µM and > 1.1 mM
